# Where “and” joins values, the source holds several entries; their conditions need not be identical. Identical values can stand only once. Among all 300,000 compounds or so, about 1,200 (0.4%) were called active. Inconclusive means that the source gave no clear call. Such entries were picked first, then a sample of the others. The call rests on the fitted dose curve; in most records, active means well fitted inhibition curve with a large enough effect; inconclusive means small, poorly fitted or top-dose-only effect, or another doubt; inactive means no such curve, though single readings can be large or run the other way. A potency beside an inconclusive call is a rough fit, not a confirmed value.
# Molecular target: Lysosomal alpha-glucosidase (Homo sapiens) (UniProt P10253)
# Test: qHTS Assay for Inhibitors and Activators of Human alpha-Glucosidase Cleavage of Glycogen
# Settings: recombinant GAA, glycogen substrate, Amplex Red glucose oxidase fluorescence; series mostly up to 76.4 µM
# In short: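 Recombinant human alpha-glucosidase (4 nM final) hydrolysed bovine liver glycogen (30 ug) for 40 min at 37 C in pH 5.0 citrate/phosphate with 0.01% Tween-20. Released glucose detected by glucose oxidase/Amplex Red, Ex 573/Em 610 nm. Compounds up to 77 uM; AC50 from Hill fits.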
# Potency means the concentration at half of the fitted maximal effect.
row,Structure (SMILES),Potency
1,Cc1cc(C(=O)NNc2ccccc2F)no1,"inconclusive: 5.01 µM [inhibitor, full curve]"
2,COC(=O)C1Cc2c([nH]c3ccccc23)CN1 (stereo not drawn),"inconclusive: 28.2 µM [activator, single point]"
3,CC1(c2ccc(Cl)c(Cl)c2)NC(=S)N2C1NC(=S)N2c1ccccc1 (stereo not drawn),"inconclusive: 11.1 µM [inhibitor, partial curve, poor fit]"
4,COc1cc(CNc2ccc3[nH]c(=O)[nH]c3c2)ccc1OCc1cccc(C)c1,"inconclusive: 50.1 µM [inhibitor, single point]"
5,Oc1cc2c(cc1C(c1ccc(Br)cc1)N1CCCC1)OCO2 (stereo not drawn),"inconclusive: 14.1 µM [inhibitor, partial curve]"
6,CC1(C)Cc2c(c(N3CCOCC3)nc3sc(-c4ccc(C(=O)O)o4)c(N)c23)CO1,"inconclusive: 31.6 µM [inhibitor, single point]"
7,FC(F)(F)c1cccc(NC(=S)NNC(=S)Nc2ccc(Cl)cc2)c1,"inconclusive: 22.4 µM [inhibitor, partial curve]"
8,Cc1c(NC(=O)/C(C#N)=C/c2ccc(-c3cccc(Cl)c3)o2)c(=O)n(-c2ccccc2)n1C,inactive
9,O=C(NCCCCc1ccccc1)C12CN(Cc3ccccc3)CC1C(c1cccc([N+](=O)[O-])c1)=NO2 (stereo not drawn),inactive
10,CCOc1ccc(NC(=O)C(c2ccccn2)N(C(=O)CCl)c2ccc(OCC)cc2)cc1 (stereo not drawn),"inconclusive: 35.5 µM [inhibitor, partial curve]"
11,C/C(=N/NC(=O)c1cccc(Br)c1)C1CC2CCC1C2 (stereo not drawn),"inconclusive: 28.2 µM [inhibitor, single point]"
12,CC(C)c1ccc2oc(-c3cc(N)ccc3O)nc2c1,"inconclusive: 3.52 µM [inhibitor, full curve]"
13,Cc1ccc2nc(-c3ccccn3)c(Nc3ccccc3C)n2c1,"inconclusive: 3.98 µM [inhibitor, full curve] and inconclusive: 7.03 µM [inhibitor, full curve]"
14,O=C(NNC1CC(=O)N(c2ccc(Br)cc2)C1=O)c1ccccn1 (stereo not drawn),"inconclusive: 3.16 µM [inhibitor, full curve]"
15,CCOC(=O)/C(N=Nc1c(C)n(C)n(-c2ccccc2)c1=O)=C(/O)c1ccccc1,"inconclusive: 14.1 µM [inhibitor, partial curve]"
16,Cc1nnsc1C(=O)NNS(=O)(=O)c1cc(C(F)(F)F)cc(C(F)(F)F)c1,"inconclusive: 39.8 µM [inhibitor, single point]"
17,Cc1nn2cc(-c3ccc(OC(C)C)cc3)nc2s1,inactive
18,CC(C)c1ccc(Nc2c(-c3ccccn3)nc3ccccn23)cc1,active: 5.62 µM
19,O=C(C(Cc1ccccc1)n1cccc1)N1CCN(C2CCCCC2)CC1 (stereo not drawn),"inconclusive: 12.6 µM [inhibitor, partial curve, poor fit]"
20,COc1ccc(CCNC(=O)c2cc(=O)c3cc(C)c(C)cc3o2)cc1OC,inactive
21,O=C1CNC(=S)N1CCc1ccc(O)c(O)c1,"inconclusive: 1.12 µM [inhibitor, full curve]"
22,NNC(=O)c1ccc(CN2CCCCC2)o1,"inconclusive: 39.8 µM [inhibitor, single point]"
23,CCc1ccc(C(=O)CC2(O)C(=O)N(CCc3ccccc3)c3ccc(Cl)cc32)cc1 (stereo not drawn),inactive

row,Structure (SMILES),Potency
1,c1ccc(-c2nc3cnccn3c2Nc2ccc3c(c2)OCCO3)cc1,"inconclusive: 50.1 µM [inhibitor, single point]"
2,CCCN1C(=O)S/C(=C\c2ccc(N3CCOCC3)o2)C1=O,inactive
3,Cc1cc(C)c2c(CC(=O)Nc3cc(C(F)(F)F)ccc3Cl)coc2c1,inactive
4,CCN1CCCc2cc(CN(CCN3CCOCC3)C(=O)Nc3ccc(C)c(C)c3)ccc21,active: 11.1 µM
5,O=C(Cc1cccs1)NCc1cn2ccccc2n1,"inconclusive: 7.08 µM [inhibitor, full curve, poor fit]"
6,O=C1C(Cl)=C(Nc2ccc(O)cc2)C(=O)c2ccccc21,"inconclusive: 22.4 µM [inhibitor, partial curve]"
7,CCOC(=O)c1c(NS(=O)(=O)c2cccc(OC)c2)sc2c1CCC2,"inconclusive: 10 µM [inhibitor, full curve]"
8,O=C(N/N=C/c1ccoc1)c1ccccc1O,"inconclusive: 35.5 µM [inhibitor, single point]"
9,COc1ccc2oc(/C=C/N(C)C)c(C(=O)c3ccc(Cl)cc3)c2c1,"inconclusive: 44.3 µM [inhibitor, partial curve, poor fit]"
10,COc1ccc(Nc2oc(COc3ccc(Cl)cc3)nc2C#N)cc1,"inconclusive: 39.8 µM [inhibitor, single point]"
11,CSc1nncc(-c2ccc(F)c(F)c2)n1,"inconclusive: 3.16 µM [inhibitor, partial curve]"
12,CC1N/C(=C\C(=O)c2ccccc2)N(O)C1(C)C (stereo not drawn),"inconclusive: 15.7 µM [inhibitor, partial curve]"
13,Cn1c(=O)c2c(nc(SCC(=O)Nc3ccccc3F)n2Cc2ccccc2F)n(C)c1=O,inactive
14,CCc1ccc(NC(=O)Cn2nnc(-c3ccccc3N)n2)cc1,inactive
15,COc1ccc(/C=C/c2nc(C#N)c(N3CCCCC3)o2)cc1OC,inactive
16,CC(=O)Nc1ccc(NC(=O)CC2Nc3cccc4cccc(c34)NC2=O)cc1 (stereo not drawn),"inconclusive: 12.6 µM [inhibitor, partial curve]"
17,Cc1nc2c3ccccc3nc(NNC(=O)CCC(=O)N3CCN(c4ccc(F)cc4)CC3)n2n1,"inconclusive: 28.2 µM [inhibitor, partial curve]"
18,Cc1nn(C)c(Sc2ccccc2N)c1[N+](=O)[O-],inactive
19,CNC(=O)c1ccc(-c2sc3nc(N4CCOCC4)c4c(c3c2N)CCCC4)o1,"inconclusive: 25.1 µM [inhibitor, single point]"
20,Cc1ccc(C)c(N2CCN(C(=S)Nc3ccc4nc(N5CCN(C)CC5)cc(C)c4c3)CC2)c1,"inconclusive: 15.7 µM [inhibitor, partial curve]"
21,C(=N\N1CCN(c2ccccn2)CC1)/C1=C(N2CCOCC2)C(=C/c2ccccc2)/CC1,"inconclusive: 3.98 µM [inhibitor, full curve]"
22,COc1cccc(NC(=O)Cn2c(=O)oc3cc(S(=O)(=O)N4CCCCC4)ccc32)c1,"inconclusive: 11.2 µM [inhibitor, single point]"
23,CC1(c2ccc(O)cc2)NC(=O)N(c2ccccc2)N1 (stereo not drawn),"inconclusive: 4.47 µM [inhibitor, full curve]"

row,Structure (SMILES),Potency
1,CC(C)NC(=S)N/N=C/c1ccc(N2CCOCC2)cc1,"inconclusive: 39.8 µM [inhibitor, partial curve]"
2,CCCCNc1nc2c(S(=O)(=O)c3ccc(Br)cc3)nnn2c2ccsc12,inactive
3,CCN1CCN(C(=S)c2ccc(-c3ccccc3)cc2)CC1,inactive
4,CCCC(=O)NC(=S)Nc1ccccc1C(=O)OC,inactive
5,COc1ccc(-c2nn(CCC(=O)O)cc2/C=N/NC(N)=S)cc1,"inconclusive: 28.2 µM [inhibitor, single point]"
6,CC(C)OCCCn1c(=O)c2ccccc2n2c(CCC(=O)N3CCN(c4ccccn4)CC3)nnc12,inactive
7,COc1cc(C2Nc3ccc4ncccc4c3C3=C2C(=O)CCC3)cc(OC)c1O (stereo not drawn),active: 44.7 µM
8,CCOC(=O)C(CC)(CCC(=O)O)c1csc(Nc2ccc(C)cc2)n1 (stereo not drawn),"inconclusive: 44.7 µM [inhibitor, partial curve]"
9,Cc1nc2ccc(NC(=S)N3CCC(C)CC3)cc2nc1C,"inconclusive: 35.5 µM [inhibitor, single point]"
10,Cc1cc(=O)[nH]c(SCC(=O)Nc2nc3c(s2)CCCC3)n1,"inconclusive: 10 µM [inhibitor, full curve, poor fit]"
11,Cc1c(C(=O)NNS(=O)(=O)c2ccccc2)sc(=S)n1C,"inconclusive: 2.49 µM [inhibitor, partial curve]"
12,CC(C)(C)c1ccc(NNC(=O)C2CCC2)cc1,"inconclusive: 50.1 µM [inhibitor, single point]"
13,COC(=O)CSc1nnc(CNc2ccc(OC)cc2)n1C,"inconclusive: 14.1 µM [inhibitor, partial curve]"
14,CN1CCc2[nH]c3ccc(C(=O)NN)cc3c2C1,"inconclusive: 24.9 µM [inhibitor, single point]"
15,c1ccc(-c2nc3ccccn3c2NC2CCCC2)nc1,active: 11.1 µM
16,CCOCCc1nnc(NC(=O)C(=O)c2cc(C)n(-c3ccc(C)c(C)c3)c2C)s1,"inconclusive: 6.31 µM [inhibitor, partial curve]"
17,Cc1nn(-c2ccccc2)c2c1C1(C(=O)N(C(C)C)c3ccccc31)C(C#N)=C(N)O2 (stereo not drawn),"inconclusive: 31.6 µM [inhibitor, single point]"
18,Cc1cc(F)ccc1S(=O)(=O)N(C(=O)c1ccncc1)c1ccc(OC(=O)c2ccncc2)cc1,"inconclusive: 17.8 µM [inhibitor, partial curve]"
19,Cc1ccc(NN2C(=O)C=C(c3ccccc3)C2=O)cc1,"inconclusive: 44.7 µM [inhibitor, partial curve]"
20,Cc1cc(C(=O)NC(=S)Nc2ccccc2N2CCCC2)ccc1[N+](=O)[O-],"inconclusive: 11.2 µM [inhibitor, partial curve]"
21,COc1ccc(NCc2cc3cc(OC)ccc3[nH]c2=O)cc1,"inconclusive: 39.8 µM [inhibitor, single point]"
22,O=C(Nc1ccc2c(c1)OCO2)[C@@H]1[C@@H]2C(=O)N(C3CCCCC3)C(=O)[C@@H]2C2c3ccccc3C=CN21 (stereo partly drawn),inactive
